Assay results: the supplement of paper PMC3334620
In all, about 33,000 sequences were measured (“E-score (-0.5 to 0.5)”: median about -0.013, highest 2% from about 0.3 on). The list shows a part of the results.

Molecular target: T1, Msn1 (UniProt P22148)
T1 sequence: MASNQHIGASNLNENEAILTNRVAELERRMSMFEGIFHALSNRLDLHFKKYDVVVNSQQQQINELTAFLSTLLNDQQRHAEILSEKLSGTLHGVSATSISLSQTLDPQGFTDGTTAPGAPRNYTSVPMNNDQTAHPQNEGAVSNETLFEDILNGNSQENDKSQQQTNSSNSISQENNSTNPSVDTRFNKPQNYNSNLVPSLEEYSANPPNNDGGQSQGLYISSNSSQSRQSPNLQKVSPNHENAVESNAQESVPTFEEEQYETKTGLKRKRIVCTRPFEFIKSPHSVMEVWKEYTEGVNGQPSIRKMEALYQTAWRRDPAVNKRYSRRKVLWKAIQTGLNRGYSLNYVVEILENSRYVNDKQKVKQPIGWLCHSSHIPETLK
Experiment: PBM E-score (8-mer binding enrichment) (E-score (-0.5 to 0.5)); higher = stronger / more preferred TF binding; most listed sequences are background and not binding sites
Conditions: protein concentration: 200 nM; construct: GST-full length
Outline: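 E-scores (a modified Wilcoxon-Mann-Whitney statistic) were assigned by the Universal PBM Analysis Suite to every ungapped eight-base word pooled with its reverse complement. The input came from universal all-10-mer Agilent arrays made double-stranded by primer extension and probed with GST-tagged yeast transcription factors at about 100-200 nM. Fluorescent anti-GST detected bound protein, and masliner normalised the scans.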

| Sequence | PBM E-score |
| --- | --- |
| CTGGAATA | 0.161 |
| ACTGAGTA | -0.15 |
| GATATATC | 0.143 |
| CGTCTGCC | -0.00954 |
| GCTCGGAC | 0.246 |
| ATTCTTGC | 0.074 |
| CGTGGAAA | 0.0488 |
| ACAGCAAA | 0.095 |
| CTTGCTCA | -0.0607 |
| ACATACAT | 0.309 |
| AATATGGG | -0.0502 |
| AGAGCATA | -0.0803 |
| CGCAGCAC | -0.00518 |
| ACATTTCA | 0.363 |
| ATAATGCA | -0.0952 |
| AATCCCGA | 0.238 |
| ATAGTTCA | 0.0157 |
| GCCGGAAC | 0.122 |
| ACACCCGG | -0.17 |
| AGTTGCAT | 0.0278 |
| CGCTACAG | -0.163 |
| AAAGCGAT | 0.00359 |
| ATGCTACC | -0.126 |
| GAGAAAAA | 0.209 |
| CACCAAGG | -0.297 |

| Sequence | PBM E-score |
| --- | --- |
| TCCGGTAA | 0.124 |
| CAAGACGC | 0.0107 |
| GGAAAAAA | 0.137 |
| ATTCGATA | 0.103 |
| AGAAGCAT | -0.0953 |
| CGTAATGC | 0.0985 |
| AATACCTA | 0.111 |
| TCAAGAAA | 0.233 |
| AGGAAAAA | 0.0925 |
| GCCGCAAA | 0.0309 |
| ACCCTAAA | -0.0528 |
| TATTAGAA | 0.248 |
| GTATACTA | -0.228 |
| ACCATGGG | -0.161 |
| GCAGGTAC | -0.0895 |
| CCCATGGG | 0.0852 |
| AGAAAATC | 0.0346 |
| ACGATTTC | 0.0879 |
| AGATCGAT | 0.0907 |
| CAGCGGGA | -0.0621 |
| AGTCTCTG | -0.0413 |
| ATCAAGTC | 0.0654 |
| ACACACCG | 0.0297 |
| CGCGAATA | 0.103 |
| CAGACGTC | 0.0698 |

| Sequence | PBM E-score |
| --- | --- |
| CAGAAATC | 0.0396 |
| ACCCACAG | -0.00035 |
| CGATTTTA | 0.0688 |
| CCGTGAAC | 0.0411 |
| CCTGGTTC | -0.0645 |
| CTATGTCC | 0.461 |
| AAGGTTCT | -0.103 |
| ACGATCTC | -0.0225 |
| AAGAAAAC | 0.0667 |
| ATATCGAA | 0.0229 |
| ATACGGAC | 0.257 |
| CTCAGGTA | -0.0235 |
| ACGGCTCC | -0.0953 |
| ACAACGAC | 0.189 |
| GAGGCCTC | -0.266 |
| ATTAATAC | 0.202 |
| CCTAGGCA | 0.0667 |
| CAGTAAAC | -0.0138 |
| ACGTTAGC | 0.0261 |
| ATGTACTG | 0.247 |
| AAGTCCTG | 0.292 |
| TAAGGTGA | -0.0308 |
| ACGCAGGC | -0.278 |
| CGAAGTAG | 0.00116 |
| ATATTAAA | 0.344 |

| Sequence | PBM E-score |
| --- | --- |
| CTTTACGA | -0.00672 |
| CGGTACCA | -0.0349 |
| TGTTAAAA | 0.138 |
| CCTGAAGC | -0.288 |
| AAAAAGGA | 0.00346 |
| GGTGAGCA | -0.119 |
| CATAGCAA | -0.0939 |
| CTCGTAAG | 0.0834 |
| GCATGTAC | 0.291 |
| CGGCTGAG | -0.0823 |
| CTCCCGAG | -0.0818 |
| AGCTTATC | -0.00508 |
| CGAGTGCA | 0.0509 |
| CCTTACTC | -0.101 |
| GCGGTGGA | -0.0394 |
| AGGCGGAT | -0.0793 |
| CACTTCTC | -0.214 |
| ATTGCGAC | 0.199 |
| GGGGACTA | -0.103 |
| CTGGTACA | 0.329 |
| GAAAGGCC | -0.136 |
| GGGAACCA | -0.173 |
| CAAAACAG | 0.184 |
| ATAGCAGA | 0.00241 |
| AAGCCGCA | -0.0983 |

| Sequence | PBM E-score |
| --- | --- |
| GCTCTCAA | -0.0581 |
| AGCCAAGC | -0.129 |
| GAAGTCGA | 0.0876 |
| AACTGTTG | 0.0585 |
| GATTCCCC | -0.281 |
| ATGGTTTG | 0.00789 |
| GAACACCC | -0.165 |
| GCGACAGA | 0.144 |
| CTACAAAA | 0.0933 |
| GCAGCTGA | -0.0734 |
| AATCTTTG | 0.0922 |
| AGGTAAAA | -0.0519 |
| TTGTACAA | 0.337 |
| GGGTGCCA | -0.202 |
| TGCTCCCA | -0.191 |
| AGCCACCG | -0.162 |
| CTAGGTCC | -0.066 |
| CTAGATAC | 0.0746 |
| AATCGGAG | 0.122 |
| AAAACTAT | 0.0462 |
| CAAGACAA | 0.367 |
| AGTAAAGA | 0.00721 |
| AATTTATC | 0.272 |
| ACCTGGAC | 0.0631 |
| CCACGCCA | -0.128 |

| Sequence | PBM E-score |
| --- | --- |
| GCTGGTAC | 0.0835 |
| ACGCGGAC | 0.17 |
| CTTGTAGC | -0.121 |
| GTCGTAGA | 0.133 |
| AGCCCCCT | -0.393 |
| CGTGGTGA | -0.0149 |
| CCACACAA | -0.00266 |
| ACTAGCAA | 0.0623 |
| CATCCAGA | -0.205 |
| AGCCCACT | -0.182 |
| ACCCGATA | 0.0622 |
| CGGCGCGA | 0.109 |
| ACCGGATG | 0.0328 |
| AGGATGAT | -0.115 |
| CGACGCGA | -0.0544 |
| GGCATCCC | -0.167 |
| GGCTCAGA | -0.122 |
| ACGGTGCT | -0.25 |
| CGGCAAGA | 0.0609 |
| CCGGGTCG | -0.141 |
| GGCACTAA | 0.0669 |
| ACATCCAC | 0.106 |
| AGCCGTCC | -0.111 |
| GGTGCTGA | -0.205 |
| AAAAATAG | 0.189 |

| Sequence | PBM E-score |
| --- | --- |
| AATGGTAC | 0.039 |
| ACTTTGAT | -0.0153 |
| GAGTGTTA | 0.0458 |
| AAAGTACA | 0.272 |
| TCTCGCAA | 0.149 |
| TCTGATCA | -0.074 |
| GAGGGCTA | -0.211 |
| GAGCATCA | -0.171 |
| CAACCTTC | -0.109 |
| AGTAAGCA | -0.0171 |
| GCTTTTCC | -0.0951 |
| CTATGCGC | -0.0539 |
| AGCTCCTA | -0.165 |
| GGAGAGAC | 0.134 |
| ATAAAGAT | 0.0119 |
| GCCCTACA | -0.04 |
| ACTTAGAC | 0.16 |
| AGCTTGTA | -0.0143 |
| ACTTAAAT | 0.0531 |
| ACTGTAAG | 0.157 |
| TCGTAGCA | 0.101 |
| GTGTTAAC | -0.0145 |
